The text below walks through data of the supplement of paper PMC4967469.

By IC50 is commonly meant the concentration that gives 50% inhibition.

A lower IC50 marks a more sensitive line; a fit beyond the top or the lowest dose is shown as a bound at that dose. The AUC spans the tested range (256-fold, ending at the top dose) of the same fit; values near 1 show little effect. Any top dose called inferred was derived from the fitted curves, not read from the paper. A value given as a limit tells only on which side of the number the result lay.

Compound in the test: Cn1cc(C2=C(c3cn(C4CCN(Cc5ccccn5)CC4)c4ccccc34)C(=O)NC2=O)c2ccccc21 [LY317615]
The experiment in a line: Viability of human cancer cell lines after 72 h of drug (GDSC screen). The settings on record: top dose inferred. The method, then:
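Human cancer cell lines in 384-well plates, medium with 10% serum, drug for 72 h over a 256-fold dose range (nine 2-fold or five 4-fold steps up to the top dose). Adherent lines were fixed and stained with the nucleic acid dye Syto60, suspension lines read with resazurin; signal relative to control wells, capped at 0 and 100%. One two-parameter sigmoid per drug and line, fitted in a mixed model over all curves with the slope shared within a line.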
On to “NCI-H2122 (lung adenocarcinoma, adherent, top dose 20 µM)”, for which the AUC was 0.894 and the IC50 is over 20 µM.
For “ETK-1 (biliary tract, adherent, top dose 20 µM)” the same measures were 0.737 and 6.61 µM.
Turning to GI-1 (glioma, adherent, top dose 20 µM), the AUC was 0.963 and the IC50 is over 20 µM.
For “HCC1428 (breast, adherent, top dose 20 µM)” the same measures were 0.95 and over 20 µM.
Taken in the same sequence, the figures for “STS-0421 (soft tissue, adherent, top dose 20 µM)” were 0.917 and over 20 µM.
Take “NB10 (neuroblastoma, adherent, top dose 20 µM)”: the AUC was found to be 0.838 and the IC50 is 13.1 µM.
For “HAL-01 (lymphoblastic leukaemia, suspension, top dose 20 µM)” the same measures were 0.398 and 0.682 µM.
For “LU-99A (large cell lung carcinoma, adherent, top dose 20 µM)” the same measures were 0.973 and over 20 µM.
Taken in the same sequence, the figures for “H513 (mesothelioma, semi-adherent, top dose 20 µM)” were 0.905 and over 20 µM.
As to “OPM-2 (myeloma, suspension, top dose 20 µM)”, the AUC amounted to 0.796 and the IC50 was determined as 7.49 µM.
For “D-247MG (glioma, adherent, top dose 20 µM)” the same measures were 0.965 and over 20 µM.
As to “CAKI-1 (kidney, adherent, top dose 20 µM)”, the AUC came to 0.61 and the IC50 amounted to 2.92 µM.
Taken in the same sequence, the figures for “NCI-H1688 (small cell lung carcinoma, adherent, top dose 20 µM)” were 0.877 and over 20 µM.
Taken in the same sequence, the figures for “Raji (Burkitt lymphoma, suspension, top dose 20 µM)” were 0.984 and over 20 µM.
Taken in the same sequence, the figures for “RL (B-cell lymphoma, suspension, top dose 20 µM)” were 0.546 and 1.65 µM.
As for “SNU-475 (liver, adherent, top dose 20 µM)”, the AUC was determined as 0.598 and the IC50 is 2.25 µM.
As for “NKM-1 (acute myeloid leukaemia, suspension, top dose 20 µM)”, the AUC stood at 0.57 and the IC50 stood at 1.96 µM.
For “Ramos-2G6-4C10 (Burkitt lymphoma, suspension, top dose 20 µM)” the same measures were 0.866 and 13.7 µM.
For “IST-SL1 (small cell lung carcinoma, semi-adherent, top dose 20 µM)”, the AUC is 0.892 and the IC50 is over 20 µM.
On to “CTB-1 (B-cell lymphoma, suspension, top dose 20 µM)”, for which the AUC was 0.784 and the IC50 turned out to be 11.9 µM.
For “EN (endometrium, adherent, top dose 20 µM)” the same measures were 0.974 and over 20 µM.
Regarding “SW1417 (large intestine, adherent, top dose 20 µM)”, the AUC is 0.854 and the IC50 was over 20 µM.
As to U251 (glioma, adherent, top dose 20 µM), the AUC was determined as 0.88 and the IC50 came to 19 µM.
For “MOLT-4 (lymphoblastic leukaemia, suspension, top dose 20 µM)” the same measures were 0.513 and 1.34 µM.
As for “FU-OV-1 (ovary, adherent, top dose 20 µM)”, the AUC turned out to be 0.954 and the IC50 was over 20 µM.
With “OAW-28 (ovary, adherent, top dose 20 µM)”, the AUC is 0.725 and the IC50 is 6.55 µM.
For “PL4 (pancreas, adherent, top dose 20 µM)” the same measures were 0.984 and over 20 µM.
Regarding “OV-17R (ovary, adherent, top dose 20 µM)”, the AUC turned out to be 0.751 and the 50% inhibitory concentration (IC50) was 9.03 µM.
For “NCI-H1355 (lung adenocarcinoma, adherent, top dose 20 µM)” the same measures were 0.861 and over 20 µM.
Taken in the same sequence, the figures for “NCI-H1838 (lung adenocarcinoma, adherent, top dose 20 µM)” were 0.941 and over 20 µM.
Taken in the same sequence, the figures for “KYSE-450 (oesophagus, adherent, top dose 20 µM)” were 0.664 and 3.46 µM.
For the cell line “NCI-H1734 (lung adenocarcinoma, adherent, top dose 20 µM)”, the AUC worked out at 0.863 and the IC50 is over 20 µM.
As for “MY-M12 (leukaemia, suspension, top dose 20 µM)”, the AUC was determined as 0.485 and the IC50 came out at 1.13 µM.
For the cell line “WM1552C (melanoma, adherent, top dose 20 µM)”, the AUC was found to be 0.534 and the IC50 is 1.55 µM.
Taken in the same sequence, the figures for “EJM (lymphoid neoplasm, semi-adherent, top dose 20 µM)” were 0.914 and over 20 µM.
As to “DOK (head and neck, adherent, top dose 20 µM)”, the AUC amounted to 0.845 and the IC50 is over 20 µM.
Taken in the same sequence, the figures for A172 (glioma, adherent, top dose 20 µM) were 0.942 and over 20 µM.
Taken in the same sequence, the figures for “QIMR-WIL (acute myeloid leukaemia, suspension, top dose 20 µM)” were 0.563 and 1.85 µM.
With “NCI-H1703 (lung adenocarcinoma, adherent, top dose 20 µM)”, the AUC worked out at 0.818 and the half-inhibitory concentration (IC50) was 14.5 µM.
Turning to “NCC021 (kidney, adherent, top dose 20 µM)”, the AUC is 0.983 and the IC50 is over 20 µM.
For “Hs766T (pancreas, adherent, top dose 20 µM)” the same measures were 0.87 and over 20 µM.
For the cell line Hey (ovary, adherent, top dose 20 µM), the AUC was 0.96 and the IC50 was over 20 µM.
For “NCI-H838 (lung adenocarcinoma, adherent, top dose 20 µM)” the same measures were 0.98 and over 20 µM.
For “SU-DHL-8 (B-cell lymphoma, suspension, top dose 20 µM)” the same measures were 0.888 and 20 µM.
In the case of “HT-1197 (bladder, adherent, top dose 20 µM)”, the AUC was determined as 0.981 and the IC50 was over 20 µM.
Taken in the same sequence, the figures for “HT55 (large intestine, adherent, top dose 20 µM)” were 0.989 and over 20 µM.
As to “DK-MG (glioma, adherent, top dose 20 µM)”, the AUC worked out at 0.715 and the IC50 was 6.92 µM.
In the case of “Daudi (Burkitt lymphoma, suspension, top dose 20 µM)”, the AUC was determined as 0.978 and the IC50 is over 20 µM.
Turning to “HSC-2 (head and neck, adherent, top dose 20 µM)”, the AUC turned out to be 0.981 and the IC50 was over 20 µM.
Consider “SUIT-2 (pancreas, adherent, top dose 20 µM)”, for which the AUC was 0.932 and the IC50 was over 20 µM.
Turning to “KU812 (chronic myeloid leukaemia, suspension, top dose 20 µM)”, the AUC was determined as 0.848 and the IC50 stood at 13 µM.
Turning to “HT-1376 (bladder, adherent, top dose 20 µM)”, the AUC was found to be 0.985 and the IC50 is over 20 µM.
For “NCI-H1651 (lung adenocarcinoma, adherent, top dose 20 µM)” the same measures were 0.987 and over 20 µM.
As for “CPC-N (small cell lung carcinoma, suspension, top dose 20 µM)”, the AUC is 0.973 and the IC50 is over 20 µM.
Taken in the same sequence, the figures for “DMS-273 (small cell lung carcinoma, adherent, top dose 20 µM)” were 0.826 and 13 µM.
For “ALL-SIL (T-cell leukaemia, suspension, top dose 20 µM)” the same measures were 0.445 and 0.907 µM.
Take “no-11 (glioma, adherent, top dose 20 µM)”: the AUC was 0.968 and the IC50 was over 20 µM.
For K2 (melanoma, adherent, top dose 20 µM) the same measures were 0.95 and over 20 µM.
For “IGR-1 (melanoma, adherent, top dose 20 µM)”, the AUC is 0.806 and the IC50 was found to be 8.74 µM.
For “RO82-W-1 (thyroid, adherent, top dose 20 µM)” the same measures were 0.983 and over 20 µM.
As to “SW1783 (glioma, adherent, top dose 20 µM)”, the AUC stood at 0.957 and the IC50 is over 20 µM.
Taken in the same sequence, the figures for “SW756 (cervix, adherent, top dose 20 µM)” were 0.985 and over 20 µM.
For the cell line “CHP-212 (neuroblastoma, adherent, top dose 20 µM)”, the AUC worked out at 0.386 and the IC50 amounted to 0.623 µM.
For “COR-L321 (lung, suspension, top dose 20 µM)” the same measures were 0.85 and 15.1 µM.
For “SK-PN-DW (Ewing sarcoma, adherent, top dose 20 µM)” the same measures were 0.914 and over 20 µM.
For “H290 (mesothelioma, adherent, top dose 20 µM)” the same measures were 0.948 and over 20 µM.
Turning to “CAL-148 (breast, suspension, top dose 20 µM)”, the AUC amounted to 0.99 and the IC50 was over 20 µM.
